Assay results published in paper PMC4336329 (PLoS ONE, 2015).
The whole screen tested about 310,000 compounds, of which about 2,200 (0.71%) showed an effect of 50% or more. Effects have a minus sign here. The list shows a part of the results.

Target: human ether-à-go-go-related gene (hERG) potassium channel (human, UniProt Q12809)
Test: primary screen, population patch clamp on CHO cells stably expressing hERG

Chain of human ether-à-go-go-related gene (hERG) potassium channel (Q12809 whole entry, looked up): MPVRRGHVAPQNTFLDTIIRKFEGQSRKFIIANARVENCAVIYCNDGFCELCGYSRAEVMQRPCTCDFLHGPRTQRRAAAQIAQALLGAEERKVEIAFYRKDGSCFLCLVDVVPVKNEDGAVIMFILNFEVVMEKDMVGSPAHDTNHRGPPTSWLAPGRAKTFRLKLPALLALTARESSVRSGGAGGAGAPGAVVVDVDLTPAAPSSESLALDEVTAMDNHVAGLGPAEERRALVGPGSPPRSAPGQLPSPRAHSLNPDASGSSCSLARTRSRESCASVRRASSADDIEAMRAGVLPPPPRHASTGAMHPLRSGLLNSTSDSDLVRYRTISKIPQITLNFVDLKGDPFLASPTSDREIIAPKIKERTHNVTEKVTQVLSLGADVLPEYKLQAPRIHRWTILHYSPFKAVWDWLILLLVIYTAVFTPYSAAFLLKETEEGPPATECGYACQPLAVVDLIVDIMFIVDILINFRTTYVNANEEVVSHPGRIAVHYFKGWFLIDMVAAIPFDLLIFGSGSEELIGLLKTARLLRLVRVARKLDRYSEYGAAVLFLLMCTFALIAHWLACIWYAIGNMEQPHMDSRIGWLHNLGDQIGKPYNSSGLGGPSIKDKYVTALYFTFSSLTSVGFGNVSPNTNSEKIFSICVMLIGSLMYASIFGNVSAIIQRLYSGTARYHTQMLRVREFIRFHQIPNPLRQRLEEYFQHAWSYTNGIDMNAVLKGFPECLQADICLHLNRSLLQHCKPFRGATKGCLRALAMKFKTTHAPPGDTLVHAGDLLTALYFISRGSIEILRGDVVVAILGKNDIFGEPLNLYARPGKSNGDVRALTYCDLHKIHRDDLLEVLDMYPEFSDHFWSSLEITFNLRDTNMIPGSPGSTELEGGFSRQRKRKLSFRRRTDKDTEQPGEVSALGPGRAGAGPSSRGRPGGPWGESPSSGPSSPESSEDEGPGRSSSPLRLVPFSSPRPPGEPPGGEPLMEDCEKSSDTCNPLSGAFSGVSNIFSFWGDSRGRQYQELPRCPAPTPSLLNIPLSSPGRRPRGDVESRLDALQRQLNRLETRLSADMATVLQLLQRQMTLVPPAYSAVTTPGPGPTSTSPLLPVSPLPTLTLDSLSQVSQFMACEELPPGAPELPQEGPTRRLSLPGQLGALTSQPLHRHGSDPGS

Row | Structure (SMILES) | hERG current change (%, negative = inhibition) at 1uM
1 | CCN1CCCC1CNS(=O)(=O)c1ccc(Cl)c(C(F)(F)F)c1 (stereo not drawn) | 4.02%
2 | CCOC(=O)C1CCCCN1Cc1cc(OC)ccc1OC (stereo not drawn) | -0.101%
3 | O=C(Nc1ccc(NC(=O)C2CC2)cn1)c1ccccc1Cl | 5.88%
4 | O=C(Oc1ccc(Cl)c2cccnc12)N1CCCCC1 | 17.9%
5 | CCc1ccccc1NC(=O)C(C#N)Cc1cccnc1 (stereo not drawn) | 0.258%
6 | O=C(OCc1ccccc1F)c1cnc(Cl)c(Cl)c1 | 9.35%
7 | CC(C(=O)NC1CCCCCC1)N(c1ccccc1)S(C)(=O)=O (stereo not drawn) | 11.2%
8 | CCCC(=O)N/C(N)=N/c1nc2ccccc2o1 | 11.1%
9 | O=C(Nc1ccc(N2CCCC2)c(Cl)c1)c1ccccc1[N+](=O)[O-] | 13.1%
10 | O=C(O)c1ccc2c(=O)n3cc(C(=O)c4ccccc4O)cc(Cl)c3nc2c1 | 4.58%
11 | CC(C)(C)c1ccc(C(=O)NCCN2CCOCC2)cc1 | 5.39%
12 | CON(C)S(=O)(=O)NC(=O)C1=C(N2CCCC2)COC1=O | 17.3%
13 | CC1CCCC(C)N1C(=O)COC(=O)c1cc(-c2cccs2)nn1-c1ccccc1 (stereo not drawn) | 15.1%
14 | Cc1ccc(-n2nc3c(c2NC(=O)CC(C)C)CS(=O)(=O)C3)cc1 | 10.4%
15 | CNc1c(NS(=O)(=O)c2ccc(CC(C)C)cc2)c(=O)oc2ccccc12 | 11.7%
16 | CC1CC(C)CN(CCCNC(=O)c2ccc(N3CCCC3=O)cc2)C1 (stereo not drawn) | 18.4%
17 | O=C(c1n[nH]c2ccccc12)N1CCN(S(=O)(=O)c2ccc(Cl)cc2)CC1 | 4.22%
18 | CCCOC1CCCN(C(=O)c2ccc3oc(C(C)C)nc3c2)C1 (stereo not drawn) | 10.6%
19 | O=C(NCc1ccco1)C(c1ccccc1F)N(CC1CCCO1)C(=O)Cn1nnc2ccccc21 (stereo not drawn) | -10.2%
20 | O=C(C1CCN(S(=O)(=O)c2cccnc2)CC1)N1CCN(C2CCCC2)CC1 | 12.2%
21 | Oc1ccccc1O | 13.9%
22 | CC1CC(C)(C)NC(=S)N1CC(=O)NCc1ccccc1Cl (stereo not drawn) | 13.9%
23 | COCC(=O)Nc1nnc(Cc2ccc(OC)c(OC)c2)s1 | -6.83%

Row | Structure (SMILES) | hERG current change (%, negative = inhibition) at 1uM
24 | COc1ccc(OC)c(C2C(C(=O)Nc3ccccc3OC)=C(C)Nc3nc(CCCO)nn32)c1 (stereo not drawn) | 11.7%
25 | COc1cc(C(C)=O)ccc1COc1ccc(C(=O)OCC(=O)NC(C)(C)C)cc1OC | 7.58%
26 | COc1cc(-c2cc(C(=O)Nc3ccc(S(=O)(=O)Nc4ncccn4)cc3)c3ccccc3n2)cc(OC)c1OC | 6.71%
27 | C/C(=N\OCC(=O)OC(C)C(=O)Nc1ccc(C(N)=O)cc1)c1ccc2c(c1)OCO2 (stereo not drawn) | 5.48%
28 | CC1c2nc3ccccc3n2C(CC(=O)NCc2ccccn2)C(=O)N1Cc1ccccc1 (stereo not drawn) | 18.2%
29 | O=C(CC1C(=O)NCCN1Cc1cccc(Oc2ccccc2)c1)NCCCn1cccn1 (stereo not drawn) | 8.61%
30 | O=C(NC(Cc1cccc(F)c1)C(=O)O)C1CCCCC1 (stereo not drawn) | 12.6%
31 | C[C@]12CCC(=O)C[C@H]1CC[C@@H]1[C@@H]2CC[C@]2(C)[C@@H](O)CC[C@@H]12 | 12.5%
32 | Fc1ccc(N2CCN(C(=S)NCc3ccco3)CC2)cc1 | -1.95%
33 | Nc1cc(=O)[nH]c(SCc2cccc3ccccc23)n1 | 6.5%
34 | COc1ccc(NC(=O)c2ccccc2N(Cc2ccccc2)S(C)(=O)=O)cc1 | 1.68%
35 | Cc1cc(C)nc(Sc2ncnc3sc4c(c23)CCC4)n1 | 6.54%
36 | O=C(COC(=O)c1ccccc1Nc1ccccc1)NCc1ccccc1 | 8.18%
37 | Cc1nn(C)cc1C1C(C#N)=C(N)N(c2cccnc2)C2=C1C(=O)CCC2 (stereo not drawn) | 8.34%
38 | O=C(CSc1nc2ccccc2o1)c1cc2ccccc2oc1=O | 1.63%
39 | CN(CCCNC(=O)c1ccc(/C=N/O)nc1)CCCN(C)Cc1ccccc1 | 8.9%
40 | CCN(CC)CCNC(=O)c1cn(CC)c2cc(N3CCN(C)CC3)c(F)cc2c1=O.Cl | -0.98%
41 | O=C(Nc1cccnc1)OCc1ccccc1 | 13.8%
42 | COc1cc(SC)ccc1C(=O)Nc1ncc(Cl)cc1Cl | 8.17%
43 | O=C(NCC1CCCN1S(=O)(=O)c1cccs1)c1ccccc1 (stereo not drawn) | 19.1%
44 | CC1CCCN(C(=O)c2ccc(Cl)c(S(=O)(=O)N3CCCCCC3)c2)C1 (stereo not drawn) | -3.22%
45 | O=S(=O)(Nc1ccccc1F)c1ccc2nsnc2c1 | 0.886%
46 | CC1Cc2ccccc2N1C(=O)c1ccc(N2CCCCC2)c([N+](=O)[O-])c1 (stereo not drawn) | 8.82%

Row | Structure (SMILES) | hERG current change (%, negative = inhibition) at 1uM
47 | Cc1ccccc1C1NC(c2ccccc2C)C(C)C(=O)C1C (stereo not drawn) | 15%
48 | O=C1C2CCCN2C(c2ccc(Cl)cc2)N1c1nccs1 (stereo not drawn) | 8.54%
49 | O=c1[nH]c(=O)n(Cc2ccco2)c2c1C(C(F)(F)F)(C(F)(F)F)N=C(c1ccc(F)cc1)N2 | 5.4%
50 | Cc1ccc(C(=O)NC(=S)NCc2cccnc2)cc1C | 6.01%
51 | Cc1ccc(NC(=O)c2sc3ncnc(N4CCN(c5ccccn5)CC4)c3c2C)c(C)c1 | -4.13%
52 | CCOCCCNS(=O)(=O)c1ccc(NC(=O)c2ccc([N+](=O)[O-])cc2Cl)cc1 | -8.51%
53 | COc1cc(C(c2c(O)c3ccccc3oc2=O)c2c(C)n(C)n(-c3ccccc3)c2=O)ccc1O (stereo not drawn) | 4.41%
54 | Cc1ccc(S(=O)(=O)NCCC(=O)NCCN2CCCCCC2)cc1 | 4.87%
55 | CCCc1c(C(=O)OCC)sc(N)c1C#N | 14.7%
56 | Cc1ccc(N(Cc2ccc([N+](=O)[O-])cc2)C(=O)c2ccco2)cc1C | 1.7%
57 | COc1ccccc1N1CCN(C(c2ccc(C)cc2)c2nnnn2C(C)C)CC1 (stereo not drawn) | 2.48%
58 | COc1ccc(CNC(=O)C2CCN(S(=O)(=O)c3c(C)n[nH]c3C)CC2)cc1 | 11.4%
59 | CCCc1cc(-c2n[nH]c(=S)n2Cc2ccccc2)cs1 | -16.5%
60 | CC1(C)O[C@@H]2[C@@H](CO[C@@]3(COS(N)(=O)=O)OC(C)(C)O[C@@H]23)O1 | 12%
61 | O=c1cc(O)n(-c2ccccc2)c(=S)[nH]1 | 21.3%
62 | CCCC(=O)NC(=S)c1c(C)n(C)n(-c2ccccc2)c1=O | 21.8%
63 | COc1ccc(NC(=O)c2cnn3c(C(F)(F)F)cc(-c4ccco4)nc23)cc1OC | 13%
64 | CC(C)CCn1c(N2CCCC2)nc2c1c(=O)[nH]c(=O)n2C | 6.53%
65 | Nc1c(C(=O)c2cccs2)oc2ccccc12 | 6.25%
66 | CC(Oc1cc2oc(=O)c3c(c2cc1Cl)CCC3)C(=O)NCC1CCC(C(=O)O)CC1 (stereo not drawn) | 8.74%
67 | O=C(CCc1ccc(F)c(F)c1)NC1CCCN(Cc2ccc(Cl)cc2)C1 (stereo not drawn) | -28.6%
68 | CCOC(=O)C1=C(CSc2nnnn2C)N(C)C(=O)NC1c1ccccc1 (stereo not drawn) | 7.93%
69 | CCOC(=O)c1c(CC(C)C)csc1NC(=O)c1ccccc1C(=O)O | 1.48%

Row | Structure (SMILES) | hERG current change (%, negative = inhibition) at 1uM
70 | Nc1cc(N)nc(SCC(=O)N2CCCCC2)n1 | 3.13%
71 | CC(=O)N(c1ccc2oc(=O)sc2c1)S(=O)(=O)c1ccc(C)cc1 | 11.7%
72 | CC(=O)Nc1c(C(=O)O)oc2ccc(Cl)cc12 | 2.84%
73 | C=CCNc1nc(SCC=C)nc2ccsc12 | 3.02%
74 | O=C(CS(=O)(=O)c1ccc(F)cc1)N1CCOCC1 | 10.6%
75 | COC(=O)C1=C(C)C(c2ccc(OC)cc2)NC(=O)N1 (stereo not drawn) | 7.34%
76 | O=C(N/N=C/c1ccco1)c1ccc(NC(=O)C2CC2)cc1 | 8.38%
77 | O=C(c1cc(F)ccc1F)C1CCCN(C(=O)CCN2CCCCO2)C1 (stereo not drawn) | 15.8%
78 | CN(C)c1oc(-c2ccco2)nc1C#N | -2.12%
79 | CN(C)c1ccc(C(=S)NCc2ccco2)cc1 | 12.4%
80 | Cc1cc(NC(=O)CN2CCC(O)(c3cccc(F)c3)CC2)no1 | 10%
81 | COc1ccc(C/C(C)=N/NS(=O)(=O)c2ccc(Br)cc2)cc1 | 9.79%
82 | O=C(NCC(=O)N(Cc1ccccc1)C(C(=O)NC1CCCC1)c1ccncc1)c1ccco1 (stereo not drawn) | 10.8%
83 | CN(C)/C(=N\S(=O)(=O)c1ccccc1)c1ccc(Cl)cc1 | 13.7%
84 | Cc1cn[nH]c1.Cl | 0.646%
85 | Cc1c(NC(=O)c2c(N)n(-c3ccccc3)c3nc4ccccc4nc23)c(=O)n(-c2ccccc2)n1C | -8.5%
86 | CC1CCCCC1NC(=O)CN1C(=O)NC(C)(c2cccc(Br)c2)C1=O (stereo not drawn) | 10.1%
87 | COC1CCN(C(=O)C2CCC(=O)N(C3CCCCCC3)C2)CC1 (stereo not drawn) | 20.5%
88 | O=C(CSC1=NCCS1)NC(c1ccccc1)c1ccccc1 | 11.4%
89 | CN1C(=S)SC(N2OC3C(=O)N(c4ccccc4)C(=O)C3C2c2ccc(Cl)cc2)C1(C)C (stereo not drawn) | 4.69%
90 | COc1cccc(C(=O)NCCS(=O)(=O)NCC2CCCO2)c1 (stereo not drawn) | 11.3%
